{
  "source": "the supplement of paper PMC11417369",
  "note": "This is one part of the list.",
  "data": [
    {"test_system": "PfAP2-HC AP2 domain (GST-tagged)", "assay": "gcPBM binding intensity (ln(normalized median fluorescence intensity)); higher = stronger DNA binding", "how_it_was_run": "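The highest Masliner-normalised natural-log median intensity across replicate spots of either probe orientation is reported as binding intensity. GST-tagged P. falciparum DNA-binding domains expressed in E. coli were applied for 1 h to an Agilent 4 × 180k array of primer-extended double-stranded 36-bp intergenic genomic probes plus negative controls, and bound protein was detected with Alexa488 anti-GST antibody and scanned at 488 nm.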", "values": [
      {"sequence": "TATAAATAAAAACACACACACATATATATATATATA [CACACA_site2319]", "gcPBM binding intensity (ln)": 10.4},
      {"sequence": "CCATTTTAAATATGCACACAGATGCACTAACCCATT [CACACA_site1883]", "gcPBM binding intensity (ln)": 9.91},
      {"sequence": "ACTACTCCATTAAGTAGTACACAAAAAAAAAAAATA [XGTACX_site7031]", "gcPBM binding intensity (ln)": 9.36},
      {"sequence": "TTACAAATGTTTTACACACACATAATTGTATCAATT [CACACA_site6147]", "gcPBM binding intensity (ln)": 9.99},
      {"sequence": "TAATAAAACATATATACACACATTATAAATACATAT [CACACA_site5014]", "gcPBM binding intensity (ln)": 10},
      {"sequence": "ATTATAGACACGCGCACACACAACAAAAAAAAAAAA [CACACA_site9180]", "gcPBM binding intensity (ln)": 11.3},
      {"sequence": "TTGGGGTATCTTCCTATGCACACTTGTTATGTACTA [CACACA_site831]", "gcPBM binding intensity (ln)": 9.85},
      {"sequence": "TTGATTACTAGAAATGCACACACTGATAAAATAAGG [CACACA_site4134]", "gcPBM binding intensity (ln)": 9.92},
      {"sequence": "ATACTTTTAAATTGATGTACTTTATTTATAAGGTGA [XGTACX_site6746]", "gcPBM binding intensity (ln)": 9.4},
      {"sequence": "TTGCTCACAAGAAGCACACAAAAAAAGAAAAAAAAA [CACACA_site4047]", "gcPBM binding intensity (ln)": 9.58},
      {"sequence": "ATATCCTTAAAAGATACACACATATGAATATTTTGT [CACACA_site3847]", "gcPBM binding intensity (ln)": 9.83},
      {"sequence": "TTTATACTTGTAAATGCACACATAAGATGCGACTAA [CACACA_site8662]", "gcPBM binding intensity (ln)": 9.64},
      {"sequence": "GTTTGTAAATATTTTACACACATATATATATATATA [CACACA_site1075]", "gcPBM binding intensity (ln)": 9.79},
      {"sequence": "GTTTTTTTATTTCATCGTACAAAAAAGAAGGCTTTA [XGTACX_site5291]", "gcPBM binding intensity (ln)": 9.35},
      {"sequence": "TTATATATTTATTTATGTACATATTTTTTTATTATA [XGTACX_site6115]", "gcPBM binding intensity (ln)": 9.99},
      {"sequence": "TAAATATGTATTCATACATGCACATATATATATATA [TGCATGCA_site584]", "gcPBM binding intensity (ln)": 9.59},
      {"sequence": "TATAAAACGGATGAACAACAAATCATATGGCACAAA [TGCATGCA_negctrl_site608]", "gcPBM binding intensity (ln)": 9.86},
      {"sequence": "TTCACAAAATATTATTGTACATTAAAATATTTATAT [XGTACX_site2535]", "gcPBM binding intensity (ln)": 9.57},
      {"sequence": "TACATGATATATCACACACACATATAAATATATATA [CACACA_site2831]", "gcPBM binding intensity (ln)": 10.2},
      {"sequence": "GAAAATTTCTTATTTTGTACACACAATAAATATTCA [XGTACX_site3267]", "gcPBM binding intensity (ln)": 9.75},
      {"sequence": "TTTTTTTAATTTGGTTGTACTTAAAAAAAAAACAGA [XGTACX_site5788]", "gcPBM binding intensity (ln)": 9.22},
      {"sequence": "ACAGTATCTGGTAGCTGTACGAGTCGTAGAGTGCAG [XGTACX_site2015]", "gcPBM binding intensity (ln)": 9.78},
      {"sequence": "GGTAAGTACGACTTGACACACATACCCATATATATA [CACACA_site4837]", "gcPBM binding intensity (ln)": 9.89},
      {"sequence": "GCGAAATATTATTATAGTATACAAATACTTCTATGA [CACACA_negctrl_site197]", "gcPBM binding intensity (ln)": 9.51},
      {"sequence": "GGTGTTAAAAAATACACACACAAAAAAAAAAAAAAA [CACACA_site138]", "gcPBM binding intensity (ln)": 9.66},
      {"sequence": "TAACTTGAATGGATATGTACATATATATATATATAT [XGTACX_site5990]", "gcPBM binding intensity (ln)": 10},
      {"sequence": "ATTCATCTATTTTGTAGTACTAAATATATATCTACT [XGTACX_site8790]", "gcPBM binding intensity (ln)": 9.84},
      {"sequence": "AATAAACATATATACACACACAAAAAAAAAAACATA [CACACA_site424]", "gcPBM binding intensity (ln)": 10.4},
      {"sequence": "TAGATGTATGTACATACACACATATATAAATAAATA [CACACA_site1788]", "gcPBM binding intensity (ln)": 9.99},
      {"sequence": "TACCTAGGATTAAAGTGTCCACATAATTTAAATAAT [XGTACX_site6736]", "gcPBM binding intensity (ln)": 9.44},
      {"sequence": "TTCTTCTGTTTTATTACACACCATTTTGTGGATACA [CACACA_site5181]", "gcPBM binding intensity (ln)": 9.96},
      {"sequence": "TATATAAATAGACACACACACATATAAATATAAATA [CACACA_site6503]", "gcPBM binding intensity (ln)": 10.4},
      {"sequence": "TTTTTTATTATATAATTGTATATAAAATTATAATTT [GTGCAC_negctrl_site733]", "gcPBM binding intensity (ln)": 9.4},
      {"sequence": "GAATGTATATTCATGTATTTATTATTATTATTATTA [XGTACX_negctrl_site156]", "gcPBM binding intensity (ln)": 9.31},
      {"sequence": "TCGGGAGGGGGGAAGCGTACATATATAAAATTATTA [XGTACX_site4683]", "gcPBM binding intensity (ln)": 10.1},
      {"sequence": "TATAACAAGTTATAAAGTACAAATGTTGAATTTTAT [XGTACX_site4673]", "gcPBM binding intensity (ln)": 9.65},
      {"sequence": "TAAAAATTAATATAAACACACAAAAATTAATAAATA [CACACA_site381]", "gcPBM binding intensity (ln)": 9.94},
      {"sequence": "TATAGATACAGATACACACACACACCGACATATATA [CACACA_site5832]", "gcPBM binding intensity (ln)": 10.7},
      {"sequence": "ATATGCCTAATAAAATGTACGTTTGTTTTATTTATT [XGTACX_site3833]", "gcPBM binding intensity (ln)": 9.77},
      {"sequence": "ATATATATATTTTGGTAGCACCTCCTTTTTTTTTTT", "gcPBM binding intensity (ln)": 9.68},
      {"sequence": "ATATGGCTAAAAGTTGCACACACACTAATAAAAAAA [CACACA_site9082]", "gcPBM binding intensity (ln)": 10.1},
      {"sequence": "TATGTATTTATATTAACACACAAAAAAAAAAAAAAA [CACACA_site5070]", "gcPBM binding intensity (ln)": 9.54},
      {"sequence": "ATTATTTTACTAAAAGATATTCCTTTTTTTTGTACT [CACACA_negctrl_site998]", "gcPBM binding intensity (ln)": 9.62},
      {"sequence": "ATATGCATTTTTATACGTACATATTTCTTTTCGTTA [XGTACX_site1497]", "gcPBM binding intensity (ln)": 9.92},
      {"sequence": "TGTTTTATTTAGAAGGTGCACATTAATATTAAATAA", "gcPBM binding intensity (ln)": 9.53},
      {"sequence": "ACAAAAGGGGAATACACACACATATATAAATAAATA [CACACA_site7111]", "gcPBM binding intensity (ln)": 10.5},
      {"sequence": "CATATTTTTATGAGATGTACAATAAGAAATATGTAA [XGTACX_site2389]", "gcPBM binding intensity (ln)": 9.57},
      {"sequence": "AACAGGTCATAATTTACACACTATATATCTTATTAT [CACACA_site6461]", "gcPBM binding intensity (ln)": 10.1},
      {"sequence": "TTCATAAGAAGGAACTGTACATATTTTTCATTTTTT [XGTACX_site6770]", "gcPBM binding intensity (ln)": 9.61},
      {"sequence": "TGTATACCTTAATATACACACATACAGATATATATA [CACACA_site4860]", "gcPBM binding intensity (ln)": 9.71},
      {"sequence": "CGATTTTTTTTTTATTGTACTTGCTCGCATGCAATA [XGTACX_site4727]", "gcPBM binding intensity (ln)": 9.51},
      {"sequence": "TTATATGTATATATATGTATATATATATATATATAG [TGCATGCA_negctrl_site461]", "gcPBM binding intensity (ln)": 9.61},
      {"sequence": "TACAATCTTTCATTATGTACTTAACATTTTTTCTGT [XGTACX_site8752]", "gcPBM binding intensity (ln)": 9.89},
      {"sequence": "CATACAGATGGACACACACACACACCCACAGACAAA [CACACA_site4431]", "gcPBM binding intensity (ln)": 10.5},
      {"sequence": "TTTTTTTTTTGATGCACACACCTGAACGAGTTAATA [CACACA_site4329]", "gcPBM binding intensity (ln)": 9.99},
      {"sequence": "TTATCCTTGTAACAATGTACACATTATTTAATACTT [XGTACX_site1830]", "gcPBM binding intensity (ln)": 9.78},
      {"sequence": "TCGTGAATGATTTAAGTACACACCGGTATTTATTCA [CACACA_site1564]", "gcPBM binding intensity (ln)": 9.77}
    ]}
  ]
}
